Laboratory results taken from PubChem BioAssay AID1919016 (Molecular Pharmacology Branch, DTP, NCI, 2023).
Some entries of the source have several records that differ or are many. The other results are left out here. The source may hold further records. Results that share an entry are repeated measurements across runs, samples, wells, individuals or studies. Signs of the kind (2×) give the number of equal values in this list.

Test system: NCI-H196 complex spheroid growth, percent test/control
Experiment: Anticancer human tumor NCI-H196 cell line growth inhibition [AhR];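 further: seven days of drug exposure starting three days after plating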
Conditions: stronger effect = lower value
Text: Multicellular complex tumor spheroid response to aryl hydrocarbon receptor antagonists in combination with a variety of drugs and investigational agents in selected tumor cell lines
The current study was undertaken to assess response to aryl hydrocarbon receptor antagonists in combination with standard-of-care drugs and investigational agents in solid tumor complex spheroid models. Complex spheroids include a stromal component modeled by human endothelial cells (HUVEC) and fibroblasts modeled by human mesenchymal stem cells (MSCs). The concentration ranges selected for each drug and investigational agent were based upon clinically achievable concentrations if the clinical Cmax of the agent was known.
Compounds. The drugs and investigational agents: BAY 2416964 (NSC825713), GNF351 (NSC835774), CH-223191 (NSC835775), CPI-455 (NSC825282), aza-TdCyd (NSC777586), decitabine (NSC127716), belinostat (NSC758774), entinostat (NSC756642), pevonedistat (NSC761192), tazemetostat (NSC777109), talazoparib (NSC765396), olaparib (NSC753686), selinexor (NSC780203), nedisertib (M3814, NSC802822), bortezomib (NSC756655), venetoclax (NSC766270), doxorubicin (NSC123127), elimusertib (BAY189344, NSC800525), ceralasertib (AZD6738, NSC777638), TAK-243 (NSC785004), alisertib (NSC759677), etoposide (NSC141540), topotecan (NSC609699), eribulin (NSC707389), gemcitabine (NSC613327), carboplatin (NSC241240), cisplatin (NSC119875), and SN-38 (NSC673596) were obtained from the National Cancer Institute (NCI) Developmental Therapeutics Program Chemical Repository (32). The FDA-approved anticancer drug set is available from the Developmental Therapeutics Program at https://dtp.cancer.gov/organization/dscb/obtaining/available plates.htm. […] The stock solutions were prepared in dimethyl sulfoxide (DMSO, Sigma-Aldrich, St. Louis, MO, cat. D2650), except for the platinum compounds which were prepared in saline (Quality Biological, Gaithersburg, MD, cat. 114-055-101), at 800-fold the tested concentration and stored at -70 degrees C prior to their use. All drugs and investigational agents were tested over a range starting from a high concentration at or near the clinical Cmax and decreasing in half-log increments. If the clinical Cmax for an agent had not been determined, the highest concentration tested was 10 microM (Table 1).
Cell Culture. All cells were maintained in an incubator at 37 degrees C and 5% CO2 with 95% humidity. The PDC lines were cultured according to standard operating procedures established by the NCI PDMR (https://pdmr.cancer.gov). Briefly, all PDCs were thawed and cultured in Matrigel-coated flasks prepared with a working solution of 1X Ham's F-12 nutrient mix, without supplementation (Invitrogen, Waltham, MA, cat. 11765054), 100 U/mL penicillin-streptomycin (Invitrogen, cat. 15140122), and 2.5% Matrigel (Corning Inc., Corning, NY, cat. 354248) for the first three passages. All PDCs were cultured in complete DMEM/F-12 media containing advanced DMEM/F-12 (Invitrogen, cat. 12634028), 4.9% defined fetal bovine serum, heat inactivated (HyClone Laboratories Inc., Logan, UT, cat. SH30070.03HI), 389 ng/mL hydrocortisone (Sigma-Aldrich, cat. H4001), 9.7 ng/mL human EGF recombinant protein (Invitrogen, cat. PHG0313), 23.4 microg/mL adenine (Sigma-Aldrich, cat. A2786), 97.3 U/mL penicillin-streptomycin (Invitrogen, cat. 15140122), 1.9 mM L-glutamine (Invitrogen, cat. 25030081), and 9.7 microM Y-27632 dihydrochloride (Tocris Bioscience, Bristol, United Kingdom, cat. 1254). […]

For `CC(CO)NC(=O)c1cc(-c2ccc(Cl)cc2)nn(-c2cnn(C)c2)c1=O` (stereo not given), the viability, T/C (compound alone 0.1 µM) was 104 (2×), 101 (3×), 100, 98.8, 103, 102, 93.7, 99.8, 99.4, 98.4, 105 (2×), 98, 99.2, 119, 106, 108%, the viability, T/C (compound alone 0.316 µM) was 91.2, 94.9, 105 (2×), 107, 112, 97.3, 104 (2×), 102, 111, 97.2, 119, 106, 96.5, 109, 94.4, 103, 108, 110% (2×) and the viability, T/C (compound alone 10 µM) was 103 (2×), 94.3, 99.7, 104 (4×), 112 (2×), 105, 113, 106, 110, 115, 109, 114 (2×), 123%.
For `Cc1cncc(-c2nc(NCCc3c[nH]c4ccccc34)c3ncn(C(C)C)c3n2)c1`, the viability, T/C (compound alone 10 µM) was 94.1, 98.9, 93.9, 77.2, 84.7, 80.3, 75.1, 76.3, 78.2, 79, 104, 86.5, 99.4, 87.6 (2×), 91.3, 87.1, 80.4, 97, 86.6%.
`Cc1ccccc1N=Nc1ccc(NC(=O)c2ccnn2C)c(C)c1` was tested, and the viability, T/C (compound alone 1 µM) was 99.4, 101 (2×), 83.9, 89.8, 88.8, 95.1, 96.9, 94.2, 96.4, 98.2, 97.2, 87.9, 95.8, 92.8, 95.2, 109, 94.5, 88.5, 94%.
